In all, about 50,000 compounds went through this assay and about 800 (1.6%) showed an effect of 50% or more. This is one part of the list.
Biological target: Bcl-2-like protein 10 (Homo sapiens) (UniProt Q9HD36)
Test: Phenotype converters, Bcl-B/TR3 peptide binding displacement, primary biochemical FP (AID 1240);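 further: 0% = Bcl-B with tracer peptide and DMSO and 100% = tracer peptide lacking Bcl-B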
Conditions: GST-Bcl-B / FITC-TR3 peptide fluorescence polarization; stronger effect = higher value; compound at 3.75 mg/L

UniProt Q9HD36, sequence (Q9HD36 whole entry, looked up): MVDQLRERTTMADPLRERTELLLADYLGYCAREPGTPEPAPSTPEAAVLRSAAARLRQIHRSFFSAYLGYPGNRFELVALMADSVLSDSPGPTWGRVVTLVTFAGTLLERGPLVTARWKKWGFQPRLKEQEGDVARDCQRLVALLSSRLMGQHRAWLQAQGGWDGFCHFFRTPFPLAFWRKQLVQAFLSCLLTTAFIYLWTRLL

| Compound | displacement [%] |
| --- | --- |
| O=C(CN(c1cccc(Cl)c1)S(=O)(=O)c1ccccc1)Nc1ccccc1Cl | 7.7 |
| CCC1CCc2c(sc(NC(=O)Cc3ccccc3)c2C(=O)OC)C1 (stereo not given) | 12.5 |
| Cc1cc(=O)oc2cc(OC(C)C)ccc12 | 8.1 |
| Cc1c(Cl)cccc1N1C(=O)C2C3C=CC(C4CC34)C2C1=O (stereo not given) | 5.6 |
| CCN1C(=O)N(COC(C)=O)C2C1N(COC(C)=O)C(=O)N2CC (stereo not given) | -3.3 |
| O=C1c2ccccc2NC(c2c(Cl)cccc2Cl)N1Cc1ccccc1 (stereo not given) | 10.9 |
| O=C(Nc1nc(-c2ccccc2)cs1)Nc1cccc2ccccc12 | -12.4 |
| Cc1ccc(S(=O)(=O)N2CCN(CC3CC4C=CC3C4)CC2)cc1 (stereo not given) | 11.1 |
| COc1ccc(CC(=O)Nc2sc3c(c2C(=O)Nc2ccc(Cl)cc2)CCC3)cc1 | -2.5 |
| CCOc1ccc(NC(=O)COc2cc(C)c(Cl)c(C)c2)cc1 | 1.1 |
| CCCCOc1ccc(C(=O)Nc2ccccc2-c2nc3ccccc3s2)cc1 | 34.5 |
| CNC(=S)NCCc1ccc(OC)c(OC)c1 | -12.5 |
| N/C(=N\N=C/c1ccc(Br)cc1)N/N=C\c1ccc(Br)cc1 | 2.6 |
| CC1=C(C(=O)c2ccccc2)C(c2cccc(F)c2)NC(=O)N1 (stereo not given) | 0.5 |
| COc1ccc(CCNc2cc(N3CCN(C(=O)c4ccc(Br)cc4)CC3)ccc2[N+](=O)[O-])cc1OC | 4.7 |
| Nc1ccccc1C(=O)Nc1ccc(C(=O)O)cc1 | 3.7 |
| COc1ccc(C2=Nc3ccccc3NC(c3ccc([N+](=O)[O-])cc3)C2)cc1 (stereo not given) | -7.2 |
| COc1ccc(/C=N/NC(=O)c2n[nH]c3c2CCC3)cc1O | -12.2 |
| C[N+]1=C(CC(=O)Nc2ccccc2Cl)c2ccccc2CC1(C)C | 1.4 |
| N/C(=N\OC(=O)c1ccc(Cl)c([N+](=O)[O-])c1)c1ccccc1Cl | 1.1 |
| C=CCN1C(=O)/C(=C\c2ccc(O)c([N+](=O)[O-])c2)C(=O)NC1=S | 0.6 |
| CC(C)C(=O)Nc1ccc(Cl)cc1C(=O)O | 8.1 |
| COc1ccc(/C=N/NC(=O)CC2C(=O)NN=C2C)cc1 (stereo not given) | 6.1 |
| Cc1ccc(-c2n[nH]c3c2C(c2cccc([N+](=O)[O-])c2)N(c2ccc(F)cc2)C3=O)cc1 (stereo not given) | -4.4 |

| Compound | displacement [%] |
| --- | --- |
| CC(C)OC(=O)C1C(=O)CC(C)(O)C(C(=O)OC(C)C)C1/C=C/c1ccccc1 (stereo not given) | 4.3 |
| O=c1c2ccccc2nc(/C=C/c2c[nH]c3ccccc23)n1-c1cccc([N+](=O)[O-])c1 | -2.2 |
| O=C(NN1C(=O)c2ccccc2C1=O)c1ccc2c(c1)C(=O)N(c1cccc([N+](=O)[O-])c1)C2=O | 0.3 |
| COc1ccc(-c2nc3cc(NC(=O)/C=C/c4cccc([N+](=O)[O-])c4)ccc3o2)cc1Cl | 0.9 |
| Nc1nnc(SCc2ccc(Br)cc2)s1 | 6.7 |
| Cc1cccc(OCC(=O)N/N=C/c2cccnc2)c1 | 2.1 |
| CCCC(C)NS(=O)(=O)c1ccc([N+](=O)[O-])cc1 (stereo not given) | 13.2 |
| Cc1ccc(C2/C(=C(\O)c3ccccc3)C(=O)C(=O)N2CCCC(=O)O)cc1 (stereo not given) | 1.4 |
| Brc1ccc(C2=NCCO2)cc1 | 4.7 |
| COc1ccc(C2CC(=O)C3=C(C2)NC(C)=C(C(=O)OCC(C)C)C3c2ccc(F)cc2)cc1 (stereo not given) | -2.7 |
| COc1ccc(CCNC(=O)c2ccc(C)c([N+](=O)[O-])c2)cc1OC | -4.6 |
| Clc1ccccc1-c1nc(NCc2ccccc2)c2ccccc2n1 | 1.7 |
| C=CCSc1nc2ccccc2c(=O)n1Cc1ccccc1 | -7.8 |
| COc1ccc(S(=O)(=O)N(CC(=O)NCC2CCCO2)c2ccc(C)cc2)cc1Br (stereo not given) | -3.6 |
| N#Cc1cccc(NC(=O)/C=C/C(=O)O)c1 | -6 |
| N#C/C(=C\c1ccco1)C(=O)Nc1ccc(F)cc1 | -7.3 |
| CCOc1ccc2nc(SC)nc(C)c2c1 | -3.6 |
| Cc1ccc(OCc2nc(-c3ccccn3)no2)c(Br)c1 | 7.3 |
| O=C(c1ccccc1)N1CCN(c2cc(N3CCCC3)c(F)cc2[N+](=O)[O-])CC1 | -2.9 |
| O=C1/C(=C/c2ccc(I)o2)SC(=S)N1Cc1ccccc1 | 44 |
| O=C1/C(=C/c2cn(-c3ccccc3)nc2-c2cccs2)SC(=S)N1Cc1ccccc1 | 115 |
| CC1=C(C(=O)OCC(C)C)C(c2cc([N+](=O)[O-])ccc2Cl)C2=C(CCCC2=O)N1 (stereo not given) | -0.6 |
| CCC(Oc1ccccc1)C(=O)Nc1cc(C)ccn1 (stereo not given) | 0.3 |
| Cc1nc(SCC(=O)c2ccccc2)n[nH]1 | 3.2 |

| Compound | displacement [%] |
| --- | --- |
| O=C(O)/C=C/c1cccc2c1OCCO2 | -4.7 |
| O=C(Nc1ccccc1)Nc1nnc(-c2cccc(F)c2)s1 | 6.2 |
| COc1cccc(C2C(C(=O)Nc3ccccc3)=C(C)N=C3SCC(=O)N32)c1 (stereo not given) | -20.5 |
| O=C(O)CCn1c2c(c3ccccc31)CCCC2 | 18.6 |
| C/C(=C/C(=O)Nc1c(C)n(C)n(-c2ccccc2)c1=O)C(=O)O | -11.1 |
| CCOc1cc(/C=C2\C(=O)NC(=O)N(c3ccc(Cl)cc3)C2=O)cc(Cl)c1OCC | 4 |
| Cc1ccc(/C=C2/SC(=O)N(CN3CCCCC3)C2=O)cc1 | 8.7 |
| c1ccc(-c2n[nH]c(-c3ccccn3)n2)nc1 | -21.3 |
| CCOC(=O)c1ccc(NC(=O)/C=C/c2ccc(OC)cc2)cc1 | -8.2 |
| CCOC(=O)C1(C)C=C(Nc2ccc(OC)cc2)C(=O)N1c1ccc(OC)cc1 (stereo not given) | 8.3 |
| COc1ccc2c(c1)/C(=C1/SC(C(C)=O)=C(c3ccccc3)S1)C(=S)C(C)(C)N2 | 17.1 |
| Cc1onc(-c2ccccc2Cl)c1C(=O)Nc1ccccc1C(=O)O | -0.2 |
| CC(C)(C)C(=O)CC(O)(c1ccccc1)C(F)(F)C(F)F (stereo not given) | -8 |
| O=C(Nc1nc2c(s1)C(=O)CCC2)c1ccccc1 | -14.8 |
| O=C(COc1ccc(Cl)cc1)NCCCn1ccnc1 | 14.5 |
| COc1ccc(-c2cc(C(=O)N3CCCC3)c3ccccc3n2)cc1OC | 27.6 |
| CCC(C)c1c(O)nc(SCC(=O)c2ccccc2)[nH]c1=O (stereo not given) | 10.8 |
| CC1=C(C(=O)OCc2ccccc2)C(c2ccccc2I)C2=C(CCCC2=O)N1 (stereo not given) | -6 |
| O=C(/C=C/c1ccco1)Nc1ccc(N2CCOCC2)cc1 | -4 |
| COc1cccc(-c2nc3sc(C)c(C)c3c(=O)[nH]2)c1 | -10.8 |
| CC(C)C(=O)Nc1nnc(Cc2nnc(NC(=O)C(C)C)s2)s1 | 4.2 |
| O=C1N=c2ccc(Cl)cc2=C1c1sc(NS(=O)(=O)Cc2ccccc2)nc1O | -7.2 |

From PubChem BioAssay AID1240 (Sanford-Burnham Center for Chemical Genomics, 2008)
